The values that follow come from PMC4336329 (PLoS ONE, 2015).

Hit rate of the full screen: of about 310,000 compounds, about 2,200 (0.71%) showed an effect of 50% or more. The effect is printed as a negative number. This is one part of the list.

The test deals with human ether-à-go-go-related gene (hERG) potassium channel (human, UniProt Q12809). Put plainly: primary screen, population patch clamp on CHO cells stably expressing hERG.
Chain of human ether-à-go-go-related gene (hERG) potassium channel (Q12809 whole entry, looked up): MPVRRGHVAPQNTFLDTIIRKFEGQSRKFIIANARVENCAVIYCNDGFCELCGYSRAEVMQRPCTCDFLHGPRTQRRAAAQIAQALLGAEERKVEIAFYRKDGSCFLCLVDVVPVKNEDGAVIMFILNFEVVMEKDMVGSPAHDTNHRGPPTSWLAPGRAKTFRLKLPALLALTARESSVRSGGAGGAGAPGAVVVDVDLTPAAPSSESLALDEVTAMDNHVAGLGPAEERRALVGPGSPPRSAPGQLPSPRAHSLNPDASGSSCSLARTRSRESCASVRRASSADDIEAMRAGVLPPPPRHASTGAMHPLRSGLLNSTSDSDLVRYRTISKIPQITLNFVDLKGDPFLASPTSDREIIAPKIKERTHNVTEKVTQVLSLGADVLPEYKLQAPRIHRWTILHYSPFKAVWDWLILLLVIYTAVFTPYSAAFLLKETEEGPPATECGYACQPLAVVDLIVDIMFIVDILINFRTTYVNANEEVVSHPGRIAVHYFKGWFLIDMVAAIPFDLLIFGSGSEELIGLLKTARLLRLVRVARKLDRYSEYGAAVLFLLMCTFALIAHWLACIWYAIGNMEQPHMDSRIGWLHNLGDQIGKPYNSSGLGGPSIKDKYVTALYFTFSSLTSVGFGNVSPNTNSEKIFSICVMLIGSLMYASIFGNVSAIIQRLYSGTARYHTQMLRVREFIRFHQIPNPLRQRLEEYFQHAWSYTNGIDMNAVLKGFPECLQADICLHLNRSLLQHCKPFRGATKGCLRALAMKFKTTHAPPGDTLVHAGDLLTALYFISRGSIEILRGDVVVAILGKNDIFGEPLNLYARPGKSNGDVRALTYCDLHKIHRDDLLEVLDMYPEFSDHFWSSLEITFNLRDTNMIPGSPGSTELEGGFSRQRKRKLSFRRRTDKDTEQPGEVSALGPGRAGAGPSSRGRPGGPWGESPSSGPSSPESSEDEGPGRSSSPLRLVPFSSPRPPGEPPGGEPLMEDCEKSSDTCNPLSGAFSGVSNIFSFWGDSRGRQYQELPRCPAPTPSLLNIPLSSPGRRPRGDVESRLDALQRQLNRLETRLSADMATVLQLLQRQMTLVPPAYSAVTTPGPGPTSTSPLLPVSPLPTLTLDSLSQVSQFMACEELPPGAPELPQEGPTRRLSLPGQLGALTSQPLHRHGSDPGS
With `CCOC(=O)C1=C(CN2CCN(C(=O)c3ccco3)CC2)NC(=O)NC1c1ccc(Cl)cc1` (stereo not drawn), the “hERG current change (%, negative = inhibition) at 1uM” value is recorded as -0.668%.

Take `CCOC(=O)c1c(N)sc(C(=O)Nc2ccccc2)c1C`: the “hERG current change (%, negative = inhibition) at 1uM” value worked out at 10.7%.

For the compound `O=S(=O)(Nc1ccc(N2CCCCC2)cc1)c1ccc(F)cc1F`, the “hERG current change (%, negative = inhibition) at 1uM” value worked out at 7.99%. As for `COC(=O)C(C)Sc1ccc2nnc(CCNS(=O)(=O)c3ccc(C)cc3)n2n1` (stereo not drawn), the “hERG current change (%, negative = inhibition) at 1uM” value is 5.96%. The result for `CCCNC(=O)C1CCN(S(=O)(=O)c2c(C)noc2/C=C\c2ccc(OC)cc2)CC1` reads 1.33%; that for `C[C@@H]1CN(C2CCN(Cc3nc(CC4CC4)no3)CC2)C[C@H](C)O1`, 10.5%; that for `Cc1ccccc1C(=O)N1CCN(c2ccc(NC(=O)c3ccc([N+](=O)[O-])o3)cc2)CC1`, 12.8%. On to `FC(F)Oc1ccc(NC(=S)NCc2ccccc2)cc1`, for which the “hERG current change (%, negative = inhibition) at 1uM” value was 10.9%.

On to `FC(F)(F)c1cccc(NC(=S)NCc2ccccc2)c1`, for which the “hERG current change (%, negative = inhibition) at 1uM” value is reported as 2.25%. The result for `CNC(=S)NNc1nc(C)cc(C)n1` reads 4.57%. The same measure for `CC(=O)c1ccc(Nc2nc(=O)c3cccnc3s2)cc1`: 11.4%; for `CC1=C(C(=O)N2CCOCC2)C(c2ccc(Cl)cc2)NC(=S)N1` (stereo not drawn): 17.9%; for `Cc1ccc2nc(NC(=O)CSc3nc(=O)n(CCN(C)C)c4c3CCCC4)sc2c1`: -4.09%. The same measure for `COc1cccc(CN2C(=O)C(C)Oc3ccccc32)c1` (stereo not drawn): 10.8%; for `CCCc1cc(=O)[nH]c(SCC(=O)Nc2nonc2N)n1`: -14.3%. As to `COc1cccc(-n2nnnc2SCC(=O)NC2CCCC2)c1`, the “hERG current change (%, negative = inhibition) at 1uM” value was 10%. The same measure for `COc1ccc(S(=O)(=O)N2CCC(NC(=O)OCc3c(Cl)cccc3Cl)CC2)cc1`: 2.08%.

As for `COC(=O)c1ccccc1S(=O)(=O)N1CCC(C(=O)OCc2ccc([N+](=O)[O-])cc2)CC1`, the “hERG current change (%, negative = inhibition) at 1uM” value is -32.2%. For `O=C(NCCc1ccccc1)c1ccc2c(c1)N(Cc1ccccc1)C(=O)CS2=O` (stereo not drawn), the “hERG current change (%, negative = inhibition) at 1uM” value is 11.1%.

Consider `CCOC(=O)c1c(NC=O)sc2c1CCC2`, for which the “hERG current change (%, negative = inhibition) at 1uM” value turned out to be 12.8%. The same measure for `CN(C)CCCSc1nc(-c2ccccc2)nc2c1CCC2`: -30.7%. In the case of `CCCCC(=O)NC(c1ccc(Cl)cc1)c1ccc2cccnc2c1O` (stereo not drawn), the “hERG current change (%, negative = inhibition) at 1uM” value worked out at 6.4%. The same measure for `COc1ccc(-c2nn(CCC(=O)O)cc2/C=N/NC(N)=S)cc1`: 1.71%; for `COc1ccc(C(=O)NCCc2nnc3ccc(SCC(=O)Nc4cc(C)on4)nn23)cc1`: 1.01%; for `O=C(CN1C(=O)CSc2cc(S(=O)(=O)N3CCCCCC3)ccc21)NCCc1ccccc1`: 4.74%. The result for `Cc1cc(NC(=O)CSc2nc(-c3ccccc3)nc3c2c(=O)n(C)c(=O)n3C)no1` reads 5.17%; that for `O=[N+]([O-])c1ccc(O)c([N+](=O)[O-])c1`, 6.22%. The result for `CCCOP(=O)(OCCC)C(NC(=O)c1ccccc1)=C(Cl)Cl` reads 8.75%.

As for `Cc1ccc(-n2ncc3c(=O)n(CC(=O)NCc4ccco4)cnc32)cc1C`, the “hERG current change (%, negative = inhibition) at 1uM” value is reported as 16.5%. The result for `S=c1[nH]nc(-c2ccc(Cl)cc2)n1-c1cccnc1` reads 11.2%. The result for `CCOCCCNC(=O)c1cc(Sc2nnc(C)s2)nc2ccccc12` reads 7.07%; that for `CCn1c(SCc2cccc(OC)c2)nc2ccccc2c1=O`, 12.2%; that for `Cc1cccc(C(=O)Nc2cccc(-c3cnc4ccccc4n3)c2)c1`, 11.9%. In the case of `COc1ccc(CNCCC(c2ccc(OC(C)C)cc2)c2ccccc2OC)cc1` (stereo not drawn), the “hERG current change (%, negative = inhibition) at 1uM” value amounted to 0.85%. The same measure for `CC1CCN(C(=S)NC(=O)c2ccccc2Br)CC1`: 10.6%; for `Cc1cccc(N2CCN(C(=O)c3cc(S(=O)(=O)N4CCOCC4)cn3C)CC2)c1C`: 5.14%; for `COc1ccc(C(=O)NCCc2nnc3ccc(SCC(=O)Nc4ccccc4)nn23)cc1`: 10.7%. On to `COc1cc(/C=N/NC(=O)c2cccc(NC(=O)c3ccccc3C)c2)ccc1O`, for which the “hERG current change (%, negative = inhibition) at 1uM” value was -10.7%.

Turning to `CN(C)S(=O)(=O)n1cc(/C=C(\NC(=O)c2ccccc2Cl)C(=O)NCCCN2CCOCC2)c2ccccc21`, the “hERG current change (%, negative = inhibition) at 1uM” value stood at 15.9%. The result for `Cc1cc(-c2nnc(CCC(=O)NC(C)c3ccc(F)cc3)o2)no1` (stereo not drawn) reads -0.909%; that for `CN(CC(O)Cn1cnc2c1c(=O)n(C)c(=O)n2C)c1ccccc1` (stereo not drawn), 10.3%.

In the case of `COc1ccc(Cn2nnnc2C(c2cccnc2)N2CCN(c3ccc(O)cc3)CC2)cc1` (stereo not drawn), the “hERG current change (%, negative = inhibition) at 1uM” value is recorded as 3.3%. For `CCn1c(=O)cc(OCC(=O)NCCc2ccc(OC)c(OC)c2)c2ccccc21`, the “hERG current change (%, negative = inhibition) at 1uM” value is reported as -11.8%. The result for `Cc1cccc(C)c1N/C=C/c1onc(C)c1[N+](=O)[O-]` reads 10.7%; that for `O=c1c(Cl)c(N2CCN(c3ccccc3)CC2)cnn1C12CC3CC(CC(C3)C1)C2`, 10.2%; that for `CCn1nc(C)cc1C(=O)NC1CCCc2c1cnn2-c1cc(F)cc(F)c1` (stereo not drawn), 20.5%. In the case of `COC(CN(C)C(=O)c1ccc(CS(=O)(=O)c2ccccc2C)o1)OC`, the “hERG current change (%, negative = inhibition) at 1uM” value is given as 16.6%. The result for `O=C(NCCN1C(=O)S/C(=C\c2cccnc2)C1=O)c1ccc(S(=O)(=O)N2CCCC2)cc1` reads -6.33%; that for `CC(=O)CCC1C2C(O)C(C(C)C)C(OC(=O)/C=C/c3ccccc3)CC12C` (stereo not drawn), -6.41%.

Take `Cc1nn(C)c(C(=O)N/N=C/c2cccc(Oc3ccccc3)c2)c1Br`: the “hERG current change (%, negative = inhibition) at 1uM” value was 15.7%. On to `CC1CCc2cc(F)ccc2N1C(=O)CSc1nnc2c(n1)[nH]c1ccccc12` (stereo not drawn), for which the “hERG current change (%, negative = inhibition) at 1uM” value is recorded as 0.184%.

For the compound `Cc1ccc(-c2csc(NC(=O)CN3C(=O)CCC3=O)n2)cc1`, the “hERG current change (%, negative = inhibition) at 1uM” value was 14.3%.

On to `NC(Cc1c[nH]c2ccccc12)C(=O)Nc1ccccc1` (stereo not drawn), for which the “hERG current change (%, negative = inhibition) at 1uM” value worked out at 4.73%. With `CN(CC(=O)Nc1ccc(F)c(F)c1)S(=O)(=O)c1cccc2cccnc12`, the “hERG current change (%, negative = inhibition) at 1uM” value turned out to be 12.4%.

As for `O=C(NCCOc1ccccc1)c1ccc2c(c1)OCO2`, the “hERG current change (%, negative = inhibition) at 1uM” value is reported as 9.84%. Turning to `Cc1cc(C)c(C#N)c(SCCS(=O)(=O)c2ccc(C(C)(C)C)cc2)n1`, the “hERG current change (%, negative = inhibition) at 1uM” value came out at 4.43%. The same measure for `CCCCN1CC(=O)N2[C@H]3c4cc(OC)ccc4OC[C@@H]3[C@H](C(=O)OCC)[C@]2(C)C1=O`: 4.96%. The result for `CN(c1ccc(C(=O)NCc2cccnc2)cc1)S(=O)(=O)c1ccc(Cl)cc1` reads 8.4%; that for `O=C(Nc1ccc2c(c1)OCO2)c1ccc(Cl)cc1Cl`, 2.12%; that for `CCN(C(=O)CSc1nc2cc(S(=O)(=O)N(CC)CC)ccc2n1CC)C1CCS(=O)(=O)C1` (stereo not drawn), -1.98%. Turning to `CCOc1cc(C(=O)Nc2cc(C)ccc2OC)ccc1OCC(=O)N1CCCCC1`, the “hERG current change (%, negative = inhibition) at 1uM” value was determined as 5.47%. `Cc1csc(SCC(=O)c2ccc(S(=O)(=O)N3CCOCC3)cc2)n1`: the “hERG current change (%, negative = inhibition) at 1uM” value turned out to be 9.84%.

With `COc1ccc(CN(C)C(=O)C2CC(=O)N(c3ccc4c(c3)OCCO4)C2)c(OC)c1` (stereo not drawn), the “hERG current change (%, negative = inhibition) at 1uM” value is on record as 8.65%. The result for `O=C(CSc1nc2c(c(=O)n1-c1ccc(F)cc1)SCC2)NCC1CCCO1` (stereo not drawn) reads -3.31%; that for `C/C(CC(=O)Nc1ccc(Cl)cc1Cl)=N\NC(=O)C(=O)NCCO`, 13.2%. The same measure for `CC(=O)Nc1ccc(NC(=O)c2ccc(N(C)S(=O)(=O)c3ccc(C)cc3)cc2)cc1`: -1.11%. The result for `Cc1ccc(N2CC(C(=O)N/N=C/c3sccc3C)CC2=O)cc1` (stereo not drawn) reads -4.06%. On to `CCC1(C)COC2(OC1)C(=O)Nc1ccccc12` (stereo not drawn), for which the “hERG current change (%, negative = inhibition) at 1uM” value worked out at 13.9%. The result for `Cc1csc(NC(=O)CSc2nnc(-c3ccccn3)n2-c2ccc(C)c(C)c2)n1` reads -57.4%; that for `CCCN1CCN(CC(=O)Nc2nnc(C)s2)CC1`, 21.5%. The result for `O=C(CNC(=O)c1cccc(Cl)c1)N/N=C/C=C/c1ccccc1` reads 12.1%; that for `CCc1nnc(NC(=O)CN2CCN(Cc3cccc(Cl)c3)CC2)s1`, 9.56%. Take `COc1ccc(C(=O)N/N=C(\C)CC(=O)Nc2ccc(N(C)C)cc2)c(OC)c1`: the “hERG current change (%, negative = inhibition) at 1uM” value is 11.5%.

On to `CCCn1c(NCc2cccc(OC)c2O)nc2ccccc21`, for which the “hERG current change (%, negative = inhibition) at 1uM” value is recorded as -4.05%.

Turning to `COc1ccc(OC)c(C(=O)C2COC(=O)C2)c1` (stereo not drawn), the “hERG current change (%, negative = inhibition) at 1uM” value was determined as 16.2%. Regarding `CSc1ccccc1NC(=O)COc1ccc(Cl)cc1Cl`, the “hERG current change (%, negative = inhibition) at 1uM” value was found to be 2.11%.

As for `O=C1c2ccccc2NC(c2ccco2)N1NS(=O)(=O)c1ccccc1` (stereo not drawn), the “hERG current change (%, negative = inhibition) at 1uM” value is 12.7%.

As for `COc1ccccc1-c1nnc2sc(COc3ccccc3)nn12`, the “hERG current change (%, negative = inhibition) at 1uM” value turned out to be 7.55%. Consider `O=C(CN1CCN(S(=O)(=O)c2ccc(F)cc2)CC1)NC1CCCC1`, for which the “hERG current change (%, negative = inhibition) at 1uM” value is 10.9%. The result for `CC(C)c1nccn1CCC(=O)O.Cl` reads 9.47%. For the compound `O=[N+]([O-])c1ccccc1CSc1nc2ccccc2o1`, the “hERG current change (%, negative = inhibition) at 1uM” value is recorded as 13.1%. Regarding `CCc1ccc(CN2CCN(c3ncccn3)CC2)cc1`, the “hERG current change (%, negative = inhibition) at 1uM” value came out at 2.39%. The same measure for `Fc1ccc(N/N=C/c2ccncc2)c(F)c1`: -1.53%; for `Cc1ccc(NC(=O)CN2CCc3ccccc3C2)cc1F`: 6.77%; for `CCN(CC)C(=O)CN1C(=O)C2CC=C(Cl)CC2C1=O` (stereo not drawn): 2.63%.

For the compound `COc1ccc(/C=C2\SC(=O)N(CCNC(=O)C3CSC4(C)CCC(=O)N34)C2=O)cc1` (stereo not drawn), the “hERG current change (%, negative = inhibition) at 1uM” value came to 3.29%.

For `CCC(C)N1C(=O)NC(=O)C2(Cc3cc(C)ccc3N(C)C2)C1=O` (stereo not drawn), the “hERG current change (%, negative = inhibition) at 1uM” value turned out to be 11.7%.
